Reference: publication PMC10907715
No constants are given. Whether binding was seen depends on the method and setting. Some entries that bind do so weakly or less than the wild type. For part of these data: Sequences can lack the tags named with a protein.

Chains of the proteins cited; added tags and fusions are not shown. Residues count along the entry.
UniProt P27467, residues 19-352: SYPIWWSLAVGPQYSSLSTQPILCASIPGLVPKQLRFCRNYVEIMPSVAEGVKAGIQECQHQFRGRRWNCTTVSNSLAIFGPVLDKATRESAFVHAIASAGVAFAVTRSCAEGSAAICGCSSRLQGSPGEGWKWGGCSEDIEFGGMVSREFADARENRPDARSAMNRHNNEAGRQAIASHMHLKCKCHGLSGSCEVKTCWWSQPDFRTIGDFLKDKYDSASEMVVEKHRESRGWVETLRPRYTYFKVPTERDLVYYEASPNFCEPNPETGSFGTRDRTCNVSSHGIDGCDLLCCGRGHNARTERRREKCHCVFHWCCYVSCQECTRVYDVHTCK

Legend:
[1] = biological target: FLAG-GFP-tagged mouse Wnt3a (mouse) (UniProt P27467); assay: AUC; AUC-FDS (fluorescence detection) of the culture supernatant of fluorescent Wnt-expressing cells co-cultured with sFRP-expressing or parental HEK293 cells; FluoroBrite DMEM with 8% FBS, no detergent; 20 °C, 42,000 rpm; c(s) model of SEDFIT
[2] = biological target: FLAG-GFP-tagged mouse Wnt3a (mouse) (UniProt P27467); assay: AUC; AUC-FDS of GFP-Wnt3a/sFRP2 with or without culture supernatant of cells expressing exFzd8
[3] = biological target: T1, mouse Wnt11-mClover (mouse) (UniProt P48615); assay: AUC; AUC-FDS (fluorescence detection) of the culture supernatant of fluorescent Wnt-expressing cells co-cultured with sFRP-expressing or parental HEK293 cells; FluoroBrite DMEM with 8% FBS, no detergent; 20 °C, 42,000 rpm; c(s) model of SEDFIT
T1 sequence: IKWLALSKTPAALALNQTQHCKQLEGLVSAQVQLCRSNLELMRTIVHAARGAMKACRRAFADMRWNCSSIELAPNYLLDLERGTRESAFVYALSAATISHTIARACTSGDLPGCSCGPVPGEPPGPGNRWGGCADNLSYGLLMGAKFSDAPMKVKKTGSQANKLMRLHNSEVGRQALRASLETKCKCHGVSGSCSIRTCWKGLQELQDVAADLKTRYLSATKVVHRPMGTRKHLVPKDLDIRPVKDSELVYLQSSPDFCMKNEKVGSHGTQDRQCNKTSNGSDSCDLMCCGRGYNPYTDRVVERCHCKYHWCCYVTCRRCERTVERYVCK

[4] = biological target: FLAG-GFP-tagged mouse Wnt3a (mouse), P27467; assay: as above; conditions: remark: other sources report otherwise
[5] = biological target: T2, FLAG-mClover-mouse Wnt5a (mouse) (UniProt P22725); assay: as above
T2 sequence: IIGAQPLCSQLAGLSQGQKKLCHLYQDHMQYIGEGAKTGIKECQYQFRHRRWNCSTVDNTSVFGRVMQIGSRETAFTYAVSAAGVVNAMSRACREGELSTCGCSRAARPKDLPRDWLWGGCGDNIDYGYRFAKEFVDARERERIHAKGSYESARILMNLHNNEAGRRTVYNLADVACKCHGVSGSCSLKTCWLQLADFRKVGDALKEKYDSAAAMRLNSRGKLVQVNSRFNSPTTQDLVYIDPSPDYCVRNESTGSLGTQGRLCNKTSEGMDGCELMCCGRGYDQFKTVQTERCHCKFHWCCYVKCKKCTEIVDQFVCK

B1: afamin (protein, UniProt G3MYZ3 22-604)
chain: LPTQPQDVDDVRITQKFIDDNIGYITIIAFAQYIQEASFEEVEMLVKAMTEYRDKCLADRTLPECSKLANEVLLENICAMEGLPQKYNFSHCCHKVDFERRLCFFHNKKADIGLLPPLPTLDPEEKCQTYKNNRESFLNNYVYEVSRRNPFVFAPTLLTVAARFEEMTKTCCEEQEKANCFQTKAEPFIYYLKALSSYQKNACRALMKFGRQILQSINIAILSQKFPKIGFKQLTSLLEDVSSKYDGCCEGDVVQCIRGRSKVMSHICSKQDSISSKIKDCCEKKIPERGECIIYSNKDDRPNDLSLREAKFIESDNVCEKRDADQANFMAEFLYEYSRRHPELSTPELLRIAKVYKDLLKECCNMENPPECYRHAENRFNETTEKSLKIVQRECEHFQNLGKDDLKYHYLINLTKLAPQLSTEELTFLGKEMVMALTTCCTLSEEFACVDNLVDLVLGELCGINENRNINPAVDHCCKTNFAFRRSCFESLEADKTYVPPSTSQGLFTFHADLCQAHNEELQRKKDRFLVNLVKLKPELAGEELWSLLADFTNVVEKCCKAQEPEACFKEESPKLAAKSQAA
binding [1]: binds

B2: mouse sFRP2-FLAG (protein, UniProt P97299 25-295)
chain: LFLFGQPDFSYKRSNCKPIPANLQLCHGIEYQNMRLPNLLGHETMKEVLEQAGAWIPLVMKQCHPDTKKFLCSLFAPVCLDDLDETIQPCHSLCVQVKDRCAPVMSAFGFPWPDMLECDRFPQDNDLCIPLASSDHLLPATEEAPKVCEACKTKNEDDNDIMETLCKNDFALKIKVKEITYINRDTKIILETKSKTIYKLNGVSERDLKKSVLWLKDSLQCTCEEMNDINAPYLVMGQKQGGELVITSVKRWQKGQREFKRISRSIRKLQC
binding [2]: binds
binding [3]: no binding

B3: mouse sFRP3-FLAG, P97401 33-323 (protein)
chain: AACEPVRIPLCKSLPWNMTKMPNHLHHSTQANAILAMEQFEGLLGTHCSPDLLFFLCAMYAPICTIDFQHEPIKPCKSVCERARQGCEPILIKYRHSWPESLACDELPVYDRGVCISPEAIVTADGADFPMDSSTGHCRGASSERCKCKPVRATQKTYFRNNYNYVIRAKVKEVKMKCHDVTAVVEVKEILKASLVNIPRDTVNLYTTSGCLCPPLTVNEEYVIMGYEDEERSRLLLVEGSIAEKWKDRLGKKVKRWDMKLRHLGLGKTDASDSTQNQKSGRNSNPRPARS
binding [4]: no binding

B4: mouse sFRP4-FLAG, Q9Z1N6 19-351 (protein)
chain: VRGAPCEAVRIPMCRHMPWNITRMPNHLHHSTQENAILAIEQYEELVDVNCSSVLRFFLCAMYAPICTLEFLHDPIKPCKSVCQRARDDCEPLMKMYNHSWPESLACDELPVYDRGVCISPEAIVTDLPEDVKWIDITPDMMVQERSFDADCKRLSPDRCKCKKVKPTLATYLSKNYSYVIHAKIKAVQRSGCNEVTTVVDVKEIFKSLSPIPRTQVPLITNSSCQCPHILPHQDVLIMCYEWRSRMMLLENCLVEKWRDQLSRRSIQWEERLQEQQRTIQDKKQIASRTSRTSRSNPPKSKGRPPAPKPASPKKNIKARSAPKKSNLKKSAS
binding [4]: no binding

B5: mouse sFRP3-FLAG (protein, UniProt P97401 33-323)
chain: B3 chain
binding [3]: no binding
binding [5]: no binding

B6: mouse sFRP4-FLAG (protein, UniProt Q9Z1N6 19-351)
chain: B4 chain
binding [3]: no binding
binding [5]: no binding
